Results as given in PubChem BioAssay AID1508623 (National Center for Advancing Translational Sciences (NCATS), 2021).
About 450 (0.94%) of roughly 48,000 compounds were called active. Inconclusive means that the source gave no clear call. Such entries were picked first, then a sample of the others. The call rests on the fitted dose curve; in most records, active means well fitted inhibition curve with a large enough effect; inconclusive means small, poorly fitted or top-dose-only effect; inactive means no such curve, though single readings can be large or run the other way. Potencies beside an inconclusive call are fits to weak or partial responses and may not hold up.

Assay: Primary qHTS for Identification of Small Molecule Inhibitors of Huntingtin Promoter Activity; further: nearly all actives have a fitted effect of over 50% in size
Details: HEK293 HTT promoter firefly luciferase reporter (activity 0% = vehicle and -100% = no light), 24 h; activity change, negative = inhibition: at 57.5 µM (top of the series)
Description: Assay Provider: Russell L. Margolis M.D.
Department Neurology, Johns Hopkins University School of Medicine, Baltimore, MD
Huntington's Disease (HD) is a neurodegenerative disorder caused by a CAG repeat expansion in exon 1 of huntingtin (HTT). While there are currently no disease-modifying treatments for HD, recent efforts have focused on development of nucleotide-based therapeutics to lower HTT expression. As an alternative to siRNA or oligonucleotide methods, we hypothesized that suppression of HTT expression might be accomplished by small molecules that either (1) directly decrease HTT expression by suppressing HTT promoter activity or (2) indirectly decrease HTT expression by increasing the promoter activity of HTT-AS, the gene antisense to HTT that appears to inhibit expression of HTT.
We developed and employed a high throughput screen for modifiers of HTT and HTT-AS promoter activity using luminescent reporter HEK293 cells; of the 52,041 compounds tested, we identified 898 replicable hits. We used a rigorous stepwise approach to assess compound toxicity and the capacity of the compounds to specifically lower huntingtin protein in 5 different cell lines, including HEK293 cells, HD lymphoblastoid cells, mouse primary neurons, HD iPSCs differentiated into cortical-like neurons, and HD hESCs. We found no compounds which were able to lower huntingtin without lowering cell viability in all assays, though the potential efficacy of a few compounds at non-toxic doses could not be excluded.
SEQUENCE No. (1, 2, 3, etc.); […] (e.g., Cells, Incubation, Reagent, etc.); VALUE and DESCRIPTION.
1; Reagent; 4 uL; 2,500 Hek293 luciferase reporter cells per wells
3; Compound; 23 nL; Control inhibitor / compound library
5; Reagent; 2.5 uL; Firefly Luc reagent; Dual-Glo Luciferase Reporter Assay System (Promega)
6; Time; 10 min; room temperature incubation
7; Detection; Luminescence; FLuc
NOTES (numbers refer to sequence above)
1; High-throughput screening, measuring luminescence from a Hek293 luciferase reporter, was performed in 1,536 well white-walled tissue-culture treated plates. 2,500 cells were plated in 4 µL of Opti-MEM per well using a Multidrop Combi Reagent Dispenser (ThermoFisher).
2; Assay plates were cultured for 24 hours.
3; Control inhibitor (PTC124; final concentration of 50 uM) and compound library (at final concentrations of 460 nM - 57.5 uM) were added to the assay plate using the Kalypsis Pintool Robotic System equipped with 1536 pinheads.
4; Cells were then incubated for 24 hours at 37 degrees C prior to luminescence measurements.
5; In all cases, luminescence was measured using the Dual-Glo Luciferase Reporter Assay System (Promega) following the manufacturer's instructions.
6; Room temperature incubation.
7; Luminescence signal was obtained using the PerkinElmer ViewLux plate reader. Results were normalized to vehicle control (0% activity) and zero RLU (-100% activity).
Potency means the concentration at half of the fitted maximal effect; tags describe the fitted curve by direction and shape.

SMILES | activity change, negative = inhibition | Potency
O=C(OCC1(COC(=O)c2cccnc2)CCCC(COC(=O)c2cccnc2)(COC(=O)c2cccnc2)C1O)c1cccnc1 | inactive: 8.89% | –
Cn1c(=O)c2[nH]cnc2n(C)c1=O | – | inactive
COc1ccc(N(CC(=O)Nc2cccc(C(C)=O)c2)S(=O)(=O)c2ccccc2)c(OC)c1 | – | inconclusive: 17.8 µM [inhibitor, partial curve, poor fit]
Cc1cc(OCCCn2c(CCNC(=O)C3CCCCC3)nc3ccccc32)ccc1Cl | – | inconclusive: 22.4 µM [inhibitor, single point]
CCOc1ccc(C(=O)N(Cc2cc(OC)c(OC)c(OC)c2)c2ccccn2)cc1 | – | inconclusive: 28.2 µM [inhibitor, single point]
O=C(Nc1nc2n(n1)C(c1ccc(Cl)cc1)C=C(c1ccccc1)N2)c1ccco1 (stereo unspecified) | – | inconclusive: 28.2 µM [inhibitor, partial curve, poor fit]
C[C@@]12C(=O)OC(=O)[C@@]1(C)C1CCC2O1 | – | inconclusive: 6.85 µM [inhibitor, full curve]
CCOc1ccc(S(=O)(=O)c2cn(Cc3ccccc3C)c3ccc(OC)cc3c2=O)cc1 | – | inconclusive: 22.4 µM [inhibitor, partial curve, poor fit]
Cc1ccc2c(c1)c(CC(=O)Nc1ccc(C)c(F)c1)c(C(=O)O)n2C | – | inconclusive: 20 µM [inhibitor, single point]
CCOc1cccc(C2c3[nH]c4ccccc4c3CCN2C(=O)CSCc2ccc(F)cc2)c1 (stereo unspecified) | – | inconclusive: 25.1 µM [inhibitor, single point]
CCOC(=O)N1CCN(Cc2nc3cc(NC(=O)C(C)C)ccc3n2C(C)C)CC1 | – | inconclusive: 12.6 µM [inhibitor, partial curve, poor fit]
CCCCS(=O)(=O)CC(O)CSc1nc(-c2ccc(C)cc2)cc(-c2ccccc2)c1C#N (stereo unspecified) | – | inconclusive: 31.6 µM [inhibitor, partial curve, poor fit]
CCc1cccc(NS(=O)(=O)c2ccc(-n3cccn3)cc2)c1 | – | active: 35.5 µM
O=C(NCCCN1CCN(c2ccc(F)cc2)CC1)c1cnn(-c2ccc(F)cc2)c1-n1cccc1 | – | inconclusive: 20 µM [inhibitor, partial curve, poor fit]
CCc1ccc(NC(=O)CSc2ccc(-c3ccccn3)nn2)cc1 | – | inconclusive: 39.8 µM [inhibitor, single point]
Cc1ccnc2c1NC(=O)c1cccnc1N2C1CC1 | – | inconclusive: 43.2 µM [inhibitor, single point]
COc1cc(NS(=O)(=O)c2cc3c(cc2C)N(C)CCO3)cc(OC)c1OC | – | inconclusive: 14.1 µM [inhibitor, partial curve, poor fit]
Cc1ccc(CN2CCc3nc(Nc4ccc5c(c4)OCCO5)ncc3C2)cc1 | inactive: -12.1% | –
CCS(=O)(=O)N1CCc2cc(C(=O)Nc3ccc(C(=O)OC)cc3)ccc21 | – | inconclusive: 39.8 µM [inhibitor, single point]
CC1=C(c2ccc(C(C)C)cc2)S(=O)(=O)NC1=NCCCN1CCN(c2ccccc2F)CC1 | – | inconclusive: 28.2 µM [inhibitor, single point]
C#C[C@]1(O)CC[C@H]2[C@@H]3CCc4cc(OC5CCCC5)ccc4[C@H]3CC[C@@]21C | inactive: 2.9% | –

SMILES | activity change, negative = inhibition | Potency
Cc1[nH]c(=O)c(C#N)cc1-c1ccncc1 | – | inconclusive: 43.2 µM [inhibitor, single point]
COc1ccccc1-c1cc2nc(C)c(CCC(=O)O)c(C)n2n1 | – | inconclusive: 1 µM [inhibitor, full curve, poor fit]
COc1cc(NC(=O)c2cc3c(s2)-c2ccccc2OC3)cc(OC)c1OC | – | inconclusive: 31.6 µM [inhibitor, single point]
CC(=O)c1cccc(Nc2nc(-c3cccc(C)c3)nc3ccccc23)c1 | – | inconclusive: 31.6 µM [inhibitor, partial curve, poor fit]
Cc1ccc(CCNC(=O)c2c[nH]c3ccc(S(=O)(=O)Nc4ccc(C)cc4C)cc3c2=O)cc1 | – | inconclusive: 17.8 µM [inhibitor, single point]
Cc1cc(C)cc(NS(=O)(=O)c2ccc(-n3cccn3)cc2)c1 | – | inconclusive: 39.8 µM [inhibitor, single point]
COc1ccc(-c2cccc(NS(=O)(=O)c3ccc(C)s3)c2)nn1 | – | inconclusive: 14.1 µM [inhibitor, partial curve, poor fit]
COCCCNC(=O)c1oc2c(c1C)-c1nn(Cc3ccc(Cl)cc3)cc1CC2 | – | inconclusive: 25.1 µM [inhibitor, single point]
CCOc1cc(CNc2ccc(C(=O)O)cc2)ccc1OCc1ccccc1 | – | inconclusive: 39.8 µM [inhibitor, single point]
Cc1ccccc1CC1C(=O)Nc2ccc(Br)cc21 (stereo unspecified) | – | inconclusive: 22.4 µM [inhibitor, single point]
CCc1ccc(CNCc2c(C(=O)O)c(C)n(Cc3c(F)cccc3Cl)c2C)cc1 | inactive: -14.5% | –
Cn1c(=O)n(C)c2cc(N3CCOCC3)c(NS(=O)(=O)c3ccc(C(C)(C)C)cc3)cc21 | inactive: -19.2% | –
COc1ccc(-c2nc(CCNC(=O)c3cccs3)cs2)cc1 | – | inconclusive: 28.2 µM [inhibitor, single point]
CCOC(=O)c1ccc(NC(=O)CC2Sc3ccc(C(F)(F)F)cc3NC2=O)cc1 (stereo unspecified) | – | inconclusive: 17.8 µM [inhibitor, partial curve]
COc1ccc(S(=O)(=O)Nc2ccc3oc4c(c3c2)C(=O)CC(C)(C)C4)cc1 | – | inconclusive: 39.8 µM [inhibitor, single point]
Cc1cccc(NS(=O)(=O)c2ccc3c(c2)[C@H]2C=CC[C@H]2[C@@H](c2ccc(F)cc2)N3)c1 | – | inconclusive: 31.6 µM [inhibitor, partial curve, poor fit]
Cc1cccc(-c2nnn3c2nc(NCCc2ccc(S(N)(=O)=O)cc2)c2ccccc23)c1 | – | inconclusive: 39.8 µM [inhibitor, single point]
COc1ccc(OC)c(NC(=O)CSc2cn(CC(=O)N3CCCCCC3)c3ccccc23)c1 | – | inconclusive: 39.8 µM [inhibitor, single point]
CCSc1ncc(Cl)c(C(=O)N(Cc2ccc(N(C)C)cc2)Cc2ccco2)n1 | – | inconclusive: 25.1 µM [inhibitor, partial curve, poor fit]
Cc1cc(NCc2ccccc2Cl)n2cnnc2n1 | – | active: 17.8 µM
Cc1ccc(-c2nc(-c3cc4cccc(OCc5ccc(F)cc5)c4oc3=O)no2)cc1 | inactive: -9.32% | –

SMILES | activity change, negative = inhibition | Potency
CC(CNC(=O)c1ccc(CSc2nc3ccncc3n2Cc2ccc(F)cc2)cc1)c1ccccc1 (stereo unspecified) | – | inconclusive: 28.2 µM [inhibitor, single point]
COc1ccc(-c2cc3ccc(O)c(CN4CCCC(C)C4)c3oc2=O)cc1 (stereo unspecified) | inactive: -22.2% | –
COc1ccc(OCCn2c(C(C)Oc3ccccc3)nc3ccccc32)cc1 (stereo unspecified) | – | inconclusive: 35.5 µM [inhibitor, single point]
Cc1ccc(Cl)cc1-n1ncc2c(NCc3ccc(F)cc3)ncnc21 | – | inconclusive: 31.6 µM [inhibitor, single point]
CCOC(=O)c1cnc2ccc(C(=O)OC)cc2c1Nc1ccccc1CC | – | inconclusive: 39.8 µM [inhibitor, single point]
Cc1cc(C)cc(-n2ccnc2SCC(=O)Nc2nc3ccccc3s2)c1 | – | inconclusive: 39.8 µM [inhibitor, single point]
CCC(C(=O)NCc1ccccc1OC)n1nc(C)n2c(cc3sccc32)c1=O (stereo unspecified) | inactive: -2.21% | –
Cc1ccc(C)c(Nc2nn3c(=O)c4ccc(C(=O)NCCc5ccccc5)cc4nc3s2)c1 | inactive: 7.6% | –
CN(C)c1ccc2nc3ccc(=[N+](C)C)cc-3sc2c1 | – | inactive
CCc1nc(-c2cccc(C)c2)c(-c2ccnc(NC(=O)c3ccccc3)c2)s1 | – | inconclusive: 19.3 µM [inhibitor, partial curve, poor fit]
Cc1cccc(C(=O)N2CCc3cc(CNC(=O)Cc4ccc(F)cc4)ccc32)c1 | – | inconclusive: 39.8 µM [inhibitor, single point]
COc1ccc(CCNc2ncnc3c2c(-c2ccccc2)cn3-c2ccc(F)cc2)cc1OC | – | inconclusive: 25.1 µM [inhibitor, partial curve, poor fit]
CCOc1ccc(NC(=O)c2cc(S(=O)(=O)N3CCCCC3)c[nH]2)cc1 | – | inconclusive: 39.8 µM [inhibitor, single point]
CC(CSC(=O)c1ccccc1)C(=O)N1C[C@@H](Sc2ccccc2)C[C@H]1C(=O)O (stereo partly specified) | inactive: 1.28% [at 25.2 µM] | –
CCOc1ccc(CCNCc2c(C(=O)O)n(Cc3ccc(C)cc3)c3cc(OC)ccc23)cc1 | – | inconclusive: 39.8 µM [inhibitor, single point]
COc1cccc(NS(=O)(=O)c2ccc3[nH]cc(C(=O)NCCc4ccccc4)c(=O)c3c2)c1 | – | inconclusive: 31.6 µM [inhibitor, single point]
CC(C)C(C)C=CC(C)C1CCC2C3=CC=C4CC(O)CCC4(C)C3CCC21C (stereo unspecified) | – | inconclusive: 24.3 µM [inhibitor, partial curve, poor fit]
O=S(=O)(c1ccccc1F)N1CCC(Oc2ccc(-n3cnnn3)cc2)CC1 | – | inconclusive: 25.1 µM [inhibitor, single point]
Cc1ccc(S(=O)(=O)c2nc(-c3ccccc3Cl)oc2N2CCCCCC2)cc1 | – | inconclusive: 8.91 µM [inhibitor, partial curve, poor fit]
